# The whole screen tested about 310,000 compounds, of which about 14,000 (4.5%) showed an effect of 50% or more. The effect is printed as a negative number. This is one part of the list.
# Molecular target: human ether-à-go-go-related gene (hERG) potassium channel (human, UniProt Q12809)
# Test: primary screen, population patch clamp on CHO cells stably expressing hERG
# 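Further: peak tail current of the secondary pulse compared with the same well before compound.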
# Chain of human ether-à-go-go-related gene (hERG) potassium channel (Q12809 whole entry, looked up): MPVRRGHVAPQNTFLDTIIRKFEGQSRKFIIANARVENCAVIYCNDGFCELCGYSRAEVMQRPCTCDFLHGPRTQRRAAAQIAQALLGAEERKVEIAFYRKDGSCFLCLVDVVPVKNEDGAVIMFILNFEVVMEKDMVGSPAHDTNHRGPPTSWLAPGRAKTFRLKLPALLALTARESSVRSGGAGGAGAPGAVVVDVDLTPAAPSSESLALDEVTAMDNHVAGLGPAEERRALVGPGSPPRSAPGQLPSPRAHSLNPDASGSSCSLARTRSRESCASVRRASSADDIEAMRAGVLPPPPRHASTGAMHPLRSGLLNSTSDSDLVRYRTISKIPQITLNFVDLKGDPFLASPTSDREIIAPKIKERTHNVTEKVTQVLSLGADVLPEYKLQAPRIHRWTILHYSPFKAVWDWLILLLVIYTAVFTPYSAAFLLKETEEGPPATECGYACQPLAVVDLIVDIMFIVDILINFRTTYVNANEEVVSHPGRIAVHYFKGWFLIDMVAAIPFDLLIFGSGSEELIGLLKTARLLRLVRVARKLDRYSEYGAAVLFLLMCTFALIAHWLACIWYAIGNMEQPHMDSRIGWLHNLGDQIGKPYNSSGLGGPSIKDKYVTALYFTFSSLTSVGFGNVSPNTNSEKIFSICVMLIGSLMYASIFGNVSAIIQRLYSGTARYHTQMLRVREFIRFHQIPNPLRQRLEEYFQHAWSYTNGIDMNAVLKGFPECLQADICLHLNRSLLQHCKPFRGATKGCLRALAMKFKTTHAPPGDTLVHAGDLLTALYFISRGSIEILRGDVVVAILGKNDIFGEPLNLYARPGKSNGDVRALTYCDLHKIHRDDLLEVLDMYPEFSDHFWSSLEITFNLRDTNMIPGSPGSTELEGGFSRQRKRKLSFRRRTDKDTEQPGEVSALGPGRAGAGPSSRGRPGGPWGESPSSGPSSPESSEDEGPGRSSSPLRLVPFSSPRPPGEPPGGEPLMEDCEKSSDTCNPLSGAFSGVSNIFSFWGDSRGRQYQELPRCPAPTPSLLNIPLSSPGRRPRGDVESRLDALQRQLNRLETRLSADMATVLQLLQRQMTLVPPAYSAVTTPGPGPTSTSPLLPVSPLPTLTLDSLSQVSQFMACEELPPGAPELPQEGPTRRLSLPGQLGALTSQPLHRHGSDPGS
row,SMILES,"hERG current change (%, negative = inhibition) at 10uM"
1,CCCCN1C(=O)/C(=C2/C=CC=CN2C)SC1=S,-39.2%
2,NS(=O)(=O)c1ccc2ccccc2c1,4.97%
3,CC1CN(CCCOc2ccccc2[N+](=O)[O-])CC(C)O1.O=C(O)C(=O)O (centres unmarked),-12.8%
4,COC(CNC(=O)c1cc(C(=O)c2c(-c3c(Cl)cccc3Cl)noc2C)c[nH]1)OC,-0.567%
5,C=CCOC(=O)C1=C(C)NC(SCC(=O)Nc2ccc(C)c(Cl)c2)=C(C#N)C1c1ccco1 (centres unmarked),16.1%
6,CC(C)c1ccc(-c2csc(NC(=O)c3cccs3)c2C(=O)O)cc1,18.3%
7,Cc1ccn2c(=O)nc(SCC(=O)NCc3ccc4c(c3)OCO4)nc2c1,-23.9%
8,O=C(/C=C/c1cccnc1)c1ccc(F)c(F)c1,-21.7%
9,CC(C)OC(=O)/C(=C/c1ccco1)c1ccccc1,2.66%
10,Cc1cc(NC(=O)c2cc3cccc([N+](=O)[O-])c3[nH]2)ccc1F,20.6%
11,CN(C(=S)NC(=O)c1ccc(Br)o1)c1ccccc1,-2.61%
12,O=c1cc(O)n(-c2ccccc2F)c(=S)[nH]1,5%
13,COc1cccc(-n2c(SCC(=O)O)nnc2-c2cccnc2)c1,-1.69%
14,CSc1ncccc1C(=O)N1CCN(S(=O)(=O)c2ccc3ccccc3c2)CC1,-34.9%
15,COCCN(C(=O)CCC(=O)Nc1ccccn1)C(C(=O)NCCC(C)C)c1ccc(C)cc1 (centres unmarked),-19.7%
16,CCCC(C)NC(=O)c1c2c(nc3ccccc13)CCC2 (centres unmarked),24.3%
17,Oc1ccc(Br)cc1-c1ccnn1-c1ccccc1,12.6%
18,Cc1nc2ccccc2c(-c2ccccc2)c1C(=O)c1ccccc1,0.392%
19,O=C(O)CCCCn1c(SCc2cc(=O)n3cc(Cl)ccc3n2)nc2ccsc2c1=O,2.87%

row,SMILES,"hERG current change (%, negative = inhibition) at 10uM"
1,Cc1cc(-c2ccccc2)c(C#N)c(N)n1,12.1%
2,CCN1C(=O)[C@H]2[C@@H](c3ccc(-c4ccc(OC)cc4)c(OC)c3)N3CCCC[C@@]3(C(=O)OC)[C@H]2C1=O.O=C(O)C(F)(F)F,1.18%
3,O=C(O)c1ccc(CSc2nnc(SCc3ccccc3)s2)cc1,-31.7%
4,Cc1noc(C)c1S(=O)(=O)N1CCCC(C(=O)c2cccc(OC(C)C)c2)C1 (centres unmarked),19.6%
5,O=C(CN1CCCCCC1)N/N=C/c1ccc(Cl)c(Cl)c1,-60%
6,COCCN(C(=O)CCC(=O)Nc1cc(C)on1)C(C(=O)NC1CCCC1)c1ccc(C(C)C)cc1 (centres unmarked),-28.3%
7,CCOC(=O)c1ccc(NC2Nc3cc(C)nn3S2)cc1 (centres unmarked),10.8%
8,COc1cccc(CN(C)C(=O)c2cc(COc3ccc4ncccc4c3)on2)c1,-14.8%
9,O=C(O)CSC1=NC(=Nc2cccc(Cl)c2)C2(CCCCC2)N1c1ccccc1,35.9%
10,CCOc1ccc2nc(SCC(=O)Nc3ccc4c(c3)OCCO4)[nH]c2c1,6.42%
11,COC(=O)C1=C(C)N(Cc2ccccc2)C(=O)N[C@H]1c1ccc(Br)cc1,-10.9%
12,O=C(NCC1CCCN1S(=O)(=O)c1ccccc1)C(=O)NC1CC1 (centres unmarked),-0.234%
13,COc1ccccc1CN1CC(C(=O)NCCN2CCOC2=O)CCC1=O (centres unmarked),5.78%
14,Cc1ccc(C)c(NC(=O)C2CCN(C(=O)c3cccs3)CC2)c1,-3.44%
15,COc1ccc(NC(=O)CSc2nnc(C)s2)cc1S(=O)(=O)N1CCOCC1,-0.484%
16,COc1ccc(Nc2ccc(N3C(=O)CCC3=O)cc2[N+](=O)[O-])cn1,-0.325%
17,Fc1ccc(CSc2ccc(-c3ccc4c(c3)OCO4)nn2)cc1,3.48%
18,CCC1=C(OC(=O)N(CC)CC)N2C(=O)OC(=NCCOC)[C@]2(Cc2ccccc2)[C@H]2C1=CC[C@H]1C(=O)N(CC)C(=O)[C@H]12,0.332%
19,CCCCOC(=O)c1ccc(NC(=O)C(=O)NCCN(C)C)cc1,-28.9%

row,SMILES,"hERG current change (%, negative = inhibition) at 10uM"
1,CCOC(=O)c1c(NC(=O)c2ccco2)n(C2CCCCC2)c2nc3ccccc3nc12,-35.6%
2,COc1ccc(CCNC(=O)CCCNC(=O)Cn2cnc3sc(C)c(C)c3c2=O)cc1OC,23.1%
3,CSc1ncc(Cl)c(C(=O)Nc2cc(C)ccc2C)n1,16.1%
4,CCOC(=O)c1c(N)c(C#N)cn1-c1ccccc1,-15.3%
5,COc1ccc(OC)c(/C=N/c2oc(-c3ccco3)c(-c3ccco3)c2C#N)c1,11.8%
6,NNC(=O)c1ccc(COc2ccc3c(c2)CCC3)o1,0.852%
7,CCCOc1ccc(CC2CCC(=O)NC2=O)cc1 (centres unmarked),-5.01%
8,CC(=O)OC1COC(n2ccc3ccccc32)C(OC(C)=O)C1OC(C)=O (centres unmarked),10.9%
9,O=C(O)/C=C/C(=O)Nc1ccc(SC(F)(F)C(F)(F)C(F)(F)F)cc1,68.5%
10,S=c1[nH]nc(Nc2cccc(Cl)c2)s1,29.9%
11,CCc1cccc(NC(=O)c2cccc(S(=O)(=O)N3CCN(C)CC3)c2)c1,-53.9%
12,CN(CC1COc2ccccc2O1)C(=S)NC1CCCCC1 (centres unmarked),-17.7%
13,O=C(NCC(=O)N(c1cccnc1)C(C(=O)NC1CCCC1)c1cccs1)c1cccs1 (centres unmarked),17.3%
14,Cc1[nH]c2ccccc2c1C(=O)CN1CCCC1,5.09%
15,CCOC(=O)C1CCCN(CC(=O)c2ccc(F)cc2)C1.O=C(O)C(=O)O (centres unmarked),-4.5%
16,O=c1c2ccccc2[nH]c(=S)n1-c1ccc2c(c1)OCCO2,14.8%
17,COc1ccc(CNC(=O)C2CCCN2C)cc1OC (centres unmarked),4.85%
18,CCN(CC)CCOC(=O)C(O)(c1ccccc1)c1ccccc1.Cl,-42.1%

# Reference: PMC4336329 (PLoS ONE, 2015)
